# Test results from the supplement of paper PMC5499739.
# The full ranking holds about 16,000 sequences; the median of “Z-score” is about -0.37, and the highest 2% start at about 3.2. The list shows a part of the results.
# Test system: RBM10 RRM1-ZnF (GST-tagged construct)
# Assay: RNAcompete 7-mer binding Z-score; higher = stronger binding preference
# Procedure, shortened: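 GST-tagged RBM10 constructs (20 pmol) were mixed with a designed pool of 241 399 RNAs up to 41 nt (1.5 nmol), transcribed from microarray-derived DNA templates. Mixing was in 1 ml Hepes pH 7.8 buffer with KCl, NaCl, glycerol, DTT, BSA and glutathione Sepharose beads. Binding ran 30 min at 4°C, followed by four 2-min washes at 4°C, and bound RNA was identified by microarray hybridisation. Each heptamer motif received a one-sided Z-score for enrichment across probes containing it.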
row,Sequence,RNAcompete 7-mer binding Z-score
1,CGAUCAG,-0.0739
2,UUCCAGG,-0.194
3,UGAAUGU,0.134
4,GUGAUCA,0.215
5,UCUCUAC,-0.808
6,GCCUGAU,-0.704
7,UAUGUCU,-0.688
8,UACGCAG,-0.259
9,CAAGGAA,1.48
10,UUCAGUG,-0.0317
11,CCCAGUU,-0.61
12,CUACAGC,-0.889
13,CUGUGAU,-0.698
14,GUGCUCU,-0.552
15,CACUUAU,-0.727
16,UUUAAUG,-0.526
17,AUGAUCU,-0.665
18,GAUCGCU,-0.552
19,GGACCAA,0.0723
20,UAUGGCG,0.537
21,AGGAAAC,0.995
22,AUCGACG,-0.311
23,UAUAUUC,-0.591

row,Sequence,RNAcompete 7-mer binding Z-score
1,AUUAUCU,-0.769
2,CACCUAC,-0.584
3,CGGACCA,0.0365
4,GGGGUGC,2.92
5,AAAGGGC,2.62
6,AAACCGG,0.183
7,GGGAGUA,2.53
8,UUCUCGC,-0.769
9,CGUAUGA,-0.24
10,AAGGCCA,-0.00896
11,GAGGUUG,2.4
12,CGUAAUG,-0.327
13,AGUUAGA,0.306
14,CAAUGGG,2.34
15,AGCGCAA,-0.295
16,AGACGCC,-0.977
17,AUCAUGC,-0.626
18,UCAGCUC,-0.756
19,UAUGACU,-0.604
20,CACCUAU,-0.902
21,GUACCGC,-0.256
22,UCAUCAU,-0.6
23,UAGACCC,-0.454

row,Sequence,RNAcompete 7-mer binding Z-score
1,AUUAUGG,0.901
2,GAUGAGA,1.02
3,ACGAUGA,0.121
4,AACUCCC,-0.759
5,UGUAGAA,0.501
6,AAGUGGA,3.31
7,UCUGCGA,-0.707
8,CCCAACG,-0.285
9,GAAUCUU,-0.733
10,ACCGGGG,1.81
11,GAAUCAA,0.0333
12,UUAAGGU,1.37
13,UAGCGCG,-0.0902
14,UCAGAGU,-0.11
15,UGUUUUA,-0.461
16,UCGUCCG,-0.701
17,UACGCCG,-0.707
18,GGCAAGC,0.436
19,UCUGCUU,-0.828
20,GGCAGUG,1.03
21,ACCGAGA,-0.392
22,CAGAGCA,0.0495
23,GUUCCAA,-0.72

row,Sequence,RNAcompete 7-mer binding Z-score
1,CAAAGAA,-0.298
2,CUCUUUG,-0.912
3,CGAAUAC,-0.363
4,UUUUUUC,-0.795
5,GGAUUCU,-0.152
6,GACAGGG,2.98
7,CAACCUC,-0.717
8,UCAUUAC,-0.766
9,CAGGGUG,3.21
10,UUCCGUU,-0.626
11,CGCCAAA,-0.746
12,CCUGUGU,-0.607
13,AUGGACU,0.829
14,GUCAACA,-0.022
15,GCCCGCG,-0.165
16,AGUUAAC,-0.175
17,UUUGGAU,0.082
18,AGGCCAG,-0.171
19,AACUCGA,-0.613
20,UCUAACA,-0.565
21,CUUACGC,-0.86
22,GAUUUAU,-0.402
23,CAUAAGA,-0.513

row,Sequence,RNAcompete 7-mer binding Z-score
1,GUUCCGU,-0.386
2,UUGUUGA,-0.0512
3,CAAUGCC,-0.802
4,CGCCCUA,-0.662
5,GAUGGUC,0.563
6,UGGGUAG,3.5
7,GGAAUGA,2.05
8,UGCAUUA,-0.366
9,ACAUCGC,-0.649
10,UCGCGGA,0.248
11,UGCGAAU,-0.165
12,GGGCUCU,0.157
13,GGCAUAG,1.16
14,CUCGGCG,-0.0999
15,GAGUUUC,-0.435
16,UCUCAUG,-0.607
17,AUAUAUA,-0.428
18,ACAUGGU,0.982
19,GACCAAG,-0.269
20,UCUAGGC,-0.415
21,AUCCUAU,-0.834
22,ACUUAUG,-0.655
23,CUCAGUG,-0.353

row,Sequence,RNAcompete 7-mer binding Z-score
1,UCCGUGA,-0.756
2,AAGUUUA,-0.516
3,UCGAUCC,-0.649
4,CGCAAGG,0.566
5,UAUAUAG,-0.207
6,UUAAAGC,-0.366
7,AUACAUG,0.231
8,GUCCCAC,-0.558
9,AUUAGAA,0.115
10,UAUAUUA,-0.454
11,UUCCUAG,-0.714
12,GGACGCG,0.836
13,CGCCGGU,-0.35
14,UGUUGGA,1.14
15,UAUCCAA,-0.779
16,GCGGUCA,0.166
17,UAGGAAG,1.72
18,UACCCGC,-0.539
19,GGCCAUU,-0.584
20,GUCCGCA,-0.62
21,CCGCUAA,-0.798
22,UGACUAG,0.244
23,UAUACGG,0.326

row,Sequence,RNAcompete 7-mer binding Z-score
1,GUUUGGA,1.36
2,AGGAAUU,0.465
3,CCUCUAA,-0.795
4,AGUGGAC,1.34
5,CGAGAAC,-0.376
6,UUCGAGA,-0.36
7,GCGAAGU,0.391
8,GAAUAGG,3.04
9,CGUAUUC,-0.672
10,CUAACAA,-0.672
11,AAUGGCA,1.14
12,UUGCUCU,-0.886
13,UCGUAUU,-0.636
14,CUCGCCU,-0.717
15,CAUCGAG,-0.165
16,UGACGGG,2.25
17,ACUUUGU,-0.954
18,UUACAAC,-0.402
19,CCAUCAG,-0.769
20,UUUCCUU,-0.948
21,CAGGGAA,2.96
22,GACUCAC,-0.672
23,AAAUAUU,-0.646

row,Sequence,RNAcompete 7-mer binding Z-score
1,UAACCGU,-0.763
2,CGCAACC,-0.594
3,CCACUCU,-0.711
4,UUCCACC,-0.701
5,ACAUCCG,-0.704
6,GCUAGAU,-0.295
7,AUCUCAC,-0.74
8,GAGCUAA,-0.00896
9,ACCCAAA,-0.811
10,UACCUUA,-0.87
11,AAUUAUU,-0.617
12,UCUAUAU,-0.733
13,GAGGGAC,2.06
14,UGGUUUG,1.9
15,UACCAGA,-0.584
16,UCGUUAG,-0.269
17,AAUACGA,-0.282
18,CUUGAAC,-0.805
19,UCGACAU,-0.428
20,CCCACCC,-0.295
21,GGAAGAG,3.13
22,UGUGACA,-0.145
